These results are taken from PubChem BioAssay (NCI).

This assay deals with NCI-H322M lung. The assay is described as follows: DTP human tumour cell line panel, 48 h.

“And” between values parts separate entries of the source, which are not always exact repeats. Equal values may be shown once.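 Where inhibition never reached the appropriate level, the endpoint shown equals the highest concentration tested. Otherwise, values were interpolated linearly from a five-concentration, 48-hour dose response in 96-well plates. Here, GI50 denotes the concentration required for 50% inhibition of growth. TGI: total growth inhibition.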

One may read the TGI as the concentration giving total growth inhibition. Higher therefore signals lower sensitivity of the cells. Usually GI50 stands for the concentration that inhibits growth by half.

`O=C(CCN(C(=O)O)S(=O)(=O)c1ccc(NC(=O)c2ccccc2)cc1)Nc1ccccc1` had a TGI of over 100 µM.

`O=c1[nH]cnc2c1cnn2Cc1cn(CCCCO)nn1` returned a TGI of over 100 µM.

As to `O=C(O)COc1ccc2c(=O)c3sc4c(=O)c5ccccc5c(=O)c4c3c(=O)c2c1`, the GI50 was 5.29 µM and the TGI came to 18.1 µM. As for `O=c1sc2ccccc2n1CC1CS1` (configuration not stated), the TGI is over 100 µM. As for `COc1cccc(C2CC(C)(O)Oc3cc4c(cc32)OCO4)c1O` (configuration not stated), the TGI is over 83.2 µM.

For the molecule `O=C1c2ccccc2C(=O)N1CCn1ccc(NC(c2ccccc2)(c2ccccc2)c2ccccc2)nc1=O`, the TGI amounted to 83.3 µM. Molecule `CC1(C)/C(=N\NC(N)=O)C2CCC1C2` (configuration not stated) returned a TGI of over 100 µM. As for `O=C(Nc1ccc2ncccc2c1)Nc1ccc2ncccc2c1`, the TGI was over 100 µM. For `Clc1ccc2c(c1)[nH]c1c2nc2ccccn21`, the TGI is > 100 µM and 38.4 µM. As for `O=C1CCC2(c3ccc(Cl)cc3)Nc3ncccc3N12` (configuration not stated), the TGI was over 100 µM. In the case of `[N-]=[N+]=Nc1c([N+](=O)[O-])c(=O)n(-c2ccccc2)c2ccccc12`, the TGI was 72.2 µM.

As for `CCC12CCCN(Cc3ccccc3)C1c1c(n(C)c3ccccc13)CC2` (configuration not stated), the TGI is over 253 µM. For `CC(C)C(CCl)NC(=O)c1cccc(C(=O)N[C@H](CCl)C(C)C)n1` (stereo in doubt), the TGI is over 100 µM. In the case of `CC1(C)OC(C(=O)Nc2cc3c4ccccc4ccc3c3ccccc23)C(C(=O)N2CCCCC2)O1` (configuration not stated), the TGI was over 100 µM. `CC(C)Cc1ccc(C(C)C(=O)N2CCN(/C=C/c3ccccc3)CC2)cc1` (configuration not stated): the TGI came out at 31.4 µM. Regarding `CC(=O)CCn1c(=S)sc2ccccc21`, the TGI is over 100 µM.

For `NS(=O)(=O)c1ccc(/C=C/c2ccc(O)c(O)c2)cc1`, the TGI was over 100 µM. `[N-]=[N+]=NC1(Cc2ccccc2)C(=O)c2cccc3c2N(CCC3)C1=O` (configuration not stated) gave a TGI of over 100 µM. For `COC(=O)C(C(=O)c1ccccc1)C(C(=O)C(=O)Nc1ccc(OC)cc1OC)C(=O)C(=O)c1ccc(C)cc1` (configuration not stated), the TGI is over 100 µM. The same measure, in the same setting: for `COC(=O)/C=C(\C(=O)OC)C1C(=O)Oc2c(C)c(=O)c3ccccc3n21` (configuration not stated) the value was over 100 µM; for `CC(=O)OC(OC(C)=O)c1ccc2ccc3cccc4ccc1c2c34`, over 100 µM. In turn, `NC(N)=NCCN1CC2CCC(CC2)C1` came in with a TGI of over 100 µM. On to `N.N.N.N.O=C([O-])CCl.O=C([O-])CCl.[Co+3].[O-][Cl+3]([O-])([O-])[O-]`, for which the GI50 was over 100 µM and the concentration for total growth inhibition (TGI) is over 100 µM. Molecule `Cn1c(=O)c2c(ncn2CCNC(CO)C(O)c2ccc([N+](=O)[O-])cc2)n(C)c1=O` (configuration not stated) displayed a total growth inhibition concentration (TGI) of over 100 µM. For the molecule `O=c1cc[nH]c(=O)[nH]1`, the TGI was over 1000 µM.

Consider `COc1cc(OC)c2nc(C)c(CCCl)c(Cl)c2c1`, for which the TGI is over 100 µM. The molecule `CC1(C)COC(C2(C)C(=O)C=C(c3ccccc3)c3ccccc32)=N1` (configuration not stated) came in with a TGI of over 100 µM. In turn, `Cc1c(O)ccc2c(O)c(NC(=O)c3ccc4c(c3)CCC(C)(C)O4)c(=O)oc12` gave a TGI of over 100 µM.

`Cc1ccc(-c2c(C#N)c(-c3ccc(C)cc3)n(NS(=O)(=O)c3ccccc3)c(=O)c2C#N)cc1` had a total growth inhibition concentration (TGI) of over 100 µM.

`CN1CC(=O)N2Cc3ccccc3-n3cccc3C2C1` (configuration not stated) gave a TGI of over 100 µM. `COC(=O)c1ccc2c(c1)nc(NC(=O)c1ccccc1)n2CCCc1ccccc1`: the GI50 was 4.29 µM and the concentration for total growth inhibition (TGI) was over 100 µM.

Regarding `CSC1=Nc2c(c(C)c(C)n2COC(CO)CO)C2=NC(=O)C(C)N12` (configuration not stated), the GI50 was over 100 µM and the TGI is over 100 µM. In the case of `Cn1c(I)c(C#CCO[Si](C)(C)C(C)(C)C)c(=O)[nH]c1=O`, the GI50 was over 65.2 µM and the TGI is over 100 µM. Molecule `C=C1C(=O)OC2CC(C)C(C(CC(C)=O)OC(C)=O)=CCC12` (configuration not stated) registered a TGI of over 89.7 µM. Molecule `CC(=O)Nc1ccc(N=Nc2c(O)c(S(=O)(=O)O)cc3cc(S(=O)(=O)O)ccc23)cc1` displayed a TGI of over 100 µM. Molecule `CCN(CC)CCNc1ccc2nnn3c4ccc(OCCN(CC)CC)cc4c(=O)c1c23` showed a TGI of over 100 µM. `O=c1oc2ccccc2cc1-c1cc2ccccn2c1` showed a TGI of over 100 µM.
